The whole screen tested about 48,000 compounds, of which about 550 (1.1%) were called active. Roughly 4% stayed inconclusive and do not appear here. Rule as the data show it: active = potency below about 15 µM; inconclusive = mostly about 16 µM to 33 µM; inactive = weaker than that. Some of the results follow.
Potency is read from the fitted curve at half-maximal effect.

Sequence of UniProt P04062 (P04062 whole entry, looked up): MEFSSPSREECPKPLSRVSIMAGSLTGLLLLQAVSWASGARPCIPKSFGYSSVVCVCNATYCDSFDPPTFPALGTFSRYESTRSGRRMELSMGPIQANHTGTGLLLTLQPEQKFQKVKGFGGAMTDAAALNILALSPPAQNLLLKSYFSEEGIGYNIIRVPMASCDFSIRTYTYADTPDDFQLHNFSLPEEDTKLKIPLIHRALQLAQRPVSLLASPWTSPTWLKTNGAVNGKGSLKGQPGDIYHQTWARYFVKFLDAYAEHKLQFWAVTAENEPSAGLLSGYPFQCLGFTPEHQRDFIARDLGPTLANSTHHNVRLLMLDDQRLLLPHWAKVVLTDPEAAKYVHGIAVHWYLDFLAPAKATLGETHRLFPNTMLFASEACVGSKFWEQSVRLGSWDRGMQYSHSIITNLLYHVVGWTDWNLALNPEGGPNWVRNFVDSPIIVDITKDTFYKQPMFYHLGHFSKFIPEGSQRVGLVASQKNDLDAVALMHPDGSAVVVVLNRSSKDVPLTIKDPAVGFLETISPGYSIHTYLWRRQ

For the assay, the target named is Lysosomal acid glucosylceramidase (Homo sapiens) (UniProt P04062). The assay can be described thus: Glucocerebrosidase.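 Also: the screen sought inhibitors.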 Conditions: purified enzyme, resorufin glucoside fluorescence (screen aimed at inhibitors), 20 min. Summed up:
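Wild-type enzyme at 0.2 nM final in 50mM citric acid/KH2PO4, 10mM sodium taurocholate, 0.01% tween-20, pH 5.9, with resorufin beta-D-glucopyranoside at 30 uM final. Compounds titrated, 20 min at RT, red fluorescence read; AC50 from titration.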
On to `CC(=O)Nc1cccc(NC(=O)C2CCCN2C(=O)Nc2ccccc2C)c1` (stereo not drawn), for which the Potency is inactive: > 76.9 µM.
For the compound `c1ccc(C2=Nn3c(nnc3-c3ccncc3)SC2)cc1`, the Potency was inactive: > 76.9 µM.
With `N#CC1C(=O)NC(N2CCN(c3ccccc3)CC2)=NC12CCCCC2` (stereo not drawn), the Potency was inactive: > 76.9 µM.
As to `CCc1noc(C)c1C(=O)N1CCCC1`, the Potency was inactive: > 76.9 µM.
As to `O=C(CSc1nc2cc(Cl)ccc2o1)N1CCOCC1`, the Potency was inactive: > 76.9 µM.
In the case of `Cc1ccc(CN2C3=NCCCN3c3ccccc32)cc1`, the Potency was inactive: > 76.9 µM.
As for `N#Cc1c(N)sc2c1CCCCCC2`, the Potency was inactive: > 76.9 µM.
Take `Cc1cccc(-n2c(SCC(=O)Nc3ccc4c(c3)OCO4)nnc2-c2ccoc2C)c1`: the Potency is inactive: > 76.9 µM.
Take `Cc1c(C(=O)OCC(=O)c2c(N)n(CC(C)C)c(=O)n(C)c2=O)oc2ccccc12`: the Potency was inactive: > 76.9 µM.
On to `COc1cccc(-c2cc(C(=O)N3C(C)CCCC3C)no2)c1` (stereo not drawn), for which the Potency was inactive: > 76.9 µM.
The figure for `CC(C)(C)NC(=O)CSc1nncn1-c1ccccc1` is inactive: > 76.9 µM.
Turning to `CC1CCN(Cc2nc3c(c(=O)n(C)c(=O)n3C)n2CCN2CCOCC2)CC1`, the Potency is inactive: > 76.9 µM.
For the compound `COc1ccc(OC)c(S(=O)(=O)N2Cc3ccccc3CC2C(=O)O)c1` (stereo not drawn), the Potency is inactive: > 76.9 µM.
On to `CCOC(=O)c1cccc(NC(=O)C(C)N2C(=O)c3ccccc3C2=O)c1` (stereo not drawn), for which the Potency is inactive: > 76.9 µM.
On to `COc1ccc(C2(O)CCN(CCCCOc3ccccc3)CC2)cc1`, for which the Potency is inactive: > 76.9 µM.
As for `O=C(NCc1ccco1)C1CCN(S(=O)(=O)N2CCOCC2)CC1`, the Potency was inactive: > 76.9 µM.
The value for `CC(C)c1cc(C(=O)N2CCN(C(c3ccccc3)c3ccccc3)CC2)no1` was inactive: > 76.9 µM.
The figure for `COc1ccccc1OCc1nc2c3c(-c4ccccc4)c(-c4ccccc4)oc3ncn2n1` is inactive: > 76.9 µM; for `N#CC1=C(O)C(c2ccccc2)n2c1nc(=O)c1ccccc12` (stereo not drawn) it is inactive: > 76.9 µM.
Regarding `COc1ccc(Cc2nn3c(Cn4nnc5ccccc54)nnc3s2)cc1`, the Potency was inactive: > 76.9 µM.
As for `Cc1ccc(OCc2nnc(SCC(=O)Nc3ccc4c(c3)OCCO4)n2Cc2ccco2)cc1`, the Potency result was “inactive”.
The value for `COc1ccccc1Nc1nc(N)nc(CSc2nccc(C)n2)n1` was inactive: > 76.9 µM; that for `CCCCNC(=O)Nc1cc(C(F)(F)F)c[nH]c1=O` was inactive: > 76.9 µM; that for `COc1cc(NS(=O)(=O)c2ccc(NC(=O)NC3CCCCC3)cc2)nc(OC)n1` was inactive: > 76.9 µM.
The figure for `CC12CC(c3ccccc3O1)N(C(=O)c1ccco1)C(=O)N2c1ccccc1` (stereo not drawn) is inactive: > 76.9 µM; for `COc1cccc(C(=O)NCc2n[nH]c(=S)n2-c2cccc(C)c2)c1` it is inactive: > 76.9 µM.
The figure for `Cn1c(SCC(=O)OCC(=O)c2ccccc2)nnc1-c1cccs1` is inactive: > 76.9 µM; for `c1coc(Cn2c(-c3ccco3)nc3ccccc32)c1` it is inactive: > 76.9 µM; for `CCOC(=O)c1[nH]c(CSc2nnc(-c3ccc(OC)cc3)o2)c(C(=O)OCC)c1C` it is inactive: > 76.9 µM.
`CCCOc1ccc(C2(C(=O)O)CCCC2)cc1`: the Potency is inactive: > 76.9 µM.
In the case of `CCn1c(SCC(=O)Nc2cc(C)c(Cl)cc2OC)nnc1-c1ccco1`, the Potency was inactive: > 76.9 µM.
Take `O=C(NCc1ccco1)c1cccc(F)c1`: the Potency is inactive: > 76.9 µM.
On to `O=C(O)c1cc(NCc2c(F)cccc2Cl)ccc1N1CCOCC1`, for which the Potency is inactive: > 76.9 µM.
For the compound `O=C(CSC1=NCCS1)Nc1ccc(S(=O)(=O)N2CCCCCC2)cc1`, the Potency is inactive: > 76.9 µM.
As to `Cc1cc(C)c(NC(=O)CN2C(=O)NC3(CCCCC3)C2=O)c(C)c1`, the Potency is inactive: > 76.9 µM.
As for `Cc1ccc(Cn2nnc(C(=O)Nc3cc(C)ccc3C)c2N)cc1`, the Potency is inactive: > 76.9 µM.
On to `Cc1cc(=O)[nH]c(N2CCN(C(c3ccccc3)c3ccccc3)CC2)n1`, for which the Potency is inactive: > 76.9 µM.
`CC1CCN(S(=O)(=O)c2ccc(NC(=O)Cn3nnc(-c4ccccc4)n3)cc2)CC1`: the Potency is inactive: > 76.9 µM.
The figure for `COc1ccc(/C(O)=C(\C#N)c2nc3ccccc3n2C)cc1OC` is inactive: > 76.9 µM; for `Cc1cc(C(=O)CSc2nnnn2C)c(C)n1-c1cccc(F)c1` it is inactive: > 76.9 µM.
Turning to `CCOC(=O)c1cnc(-n2nc(C)cc2C)nc1Nc1cccc(C(C)=O)c1`, the Potency was inactive: > 15.4 µM.
Turning to `COc1ccccc1NC(=O)N1CCCC1C(=O)Nc1ccc2c(c1)OCO2` (stereo not drawn), the Potency was inactive: > 76.9 µM.
With `COCCn1nnnc1C(C(C)C)N1CCC(Cc2ccccc2)CC1` (stereo not drawn), the Potency was inactive: > 76.9 µM.
For the compound `CC1(C)CC(=O)c2c(-c3cccnc3)n[nH]c2C1`, the Potency is inactive: > 76.9 µM.
The value for `CC1=CCC2C(=O)N(c3nc4ccccc4n3C)C(=O)C2C1` (stereo not drawn) was inactive: > 76.9 µM.
The figure for `CCCC(c1nnnn1CCC(C)C)N1CCC(C(N)=O)CC1` (stereo not drawn) is inactive: > 76.9 µM.
The value for `COc1ccc(C2c3c(oc4ccccc4c3=O)C(=O)N2CC2CCCO2)cc1` (stereo not drawn) was inactive: > 76.9 µM; that for `CCOc1c(Br)cc(C(N)=O)cc1OC` was inactive: > 76.9 µM.
On to `Cn1c(COc2ccccc2)nnc1SCCSc1nnc(COc2ccccc2)n1C`, for which the Potency was inactive: > 76.9 µM.
For the compound `O=C(OC(C(=O)NCc1cccs1)c1ccc(F)cc1)c1ccco1` (stereo not drawn), the Potency is inactive: > 76.9 µM.
Turning to `CCN1CCCC1CNC(=O)c1cc2c(C)nc3ccccc3c2o1` (stereo not drawn), the Potency is inactive: > 76.9 µM.
With `COc1cc(C(=O)NC2CC3CCCC(C2)N3CC(=O)Nc2ccccc2)cc(OC)c1OC` (stereo not drawn), the Potency was inactive: > 76.9 µM.
In the case of `O=C(Nc1ccccc1N1CCOCC1)c1ccc(Br)o1`, the Potency was inactive: > 76.9 µM.
`CCN(CC)CCOC(=O)C1(c2ccccc2)CCOCC1`: the Potency was inactive: > 76.9 µM.
Turning to `O=C(CSc1nnc(-c2ccco2)n1-c1ccccc1)N1CCN(C(=O)c2ccco2)CC1`, the Potency is inactive: > 76.9 µM.
As for `CCOC(=O)C1C(c2ccccc2Cl)NC(=O)N(C)C1(O)C(F)(F)F` (stereo not drawn), the Potency is inactive: > 76.9 µM.
For `Cc1cc(NC(=O)CSc2nc(C3CC3)nc3sc4c(c23)CCC(C)C4)no1` (stereo not drawn), the Potency is inactive: > 76.9 µM.
On to `Cc1ccc(OCc2nnc(SCC(=O)N3CCOCC3)n2C)cc1`, for which the Potency was inactive: > 76.9 µM.

The record behind these values is PubChem BioAssay AID360 (National Center for Advancing Translational Sciences (NCATS), 2006).
